# Reference: the supplement of paper PMC8728848
# The list shows a part of the results.
# B1: HPA (Helix pomatia), Q2F1K8 (protein)
# chain: MQAFYSGLLLLCVVAFAAAQRVQSGKIDCGNDAGWAKVPSDDPGRDNTRELAKNITFASPYCRPPVVLLSITQLDVEQSQNLRVIARLYSVSPTGFKASCYTWHNTKVYSMSISWISIENY
# Experiments:
# Test in all cases: glycan array binding signal (z-score within array); higher = stronger binding
# Conditions in all cases: glycan notation: IUPAC condensed, linker removed
# [1] = molecular target: GlcNAc(b1-3)Gal(b1-4)GlcNAc(b1-3)Gal(b1-4)GlcNAc(b1-3)Gal(b1-4)GlcNAc(b1-2)[GlcNAc(b1-3)Gal(b1-4)GlcNAc(b1-3)Gal(b1-4)GlcNAc(b1-3)Gal(b1-4)GlcNAc(b1-6)]Man(a1-6)[GlcNAc(b1-3)Gal(b1-4)GlcNAc(b1-3)Gal(b1-4)GlcNAc(b1-3)Gal(b1-4)GlcNAc(b1-2)Man(a1-3)]Man(b1-4)GlcNAc(b1-4)[Fuc(a1-6)]GlcNAc
# Procedure, shortened: (§1)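 Glycan array binding is given as a within-array Z-score, which can be read as non-binding when negative. The arrays, 3228 of them, came from the Consortium for Functional Glycomics database and were retained only where the protein sequence was available. Z-scores were averaged across arrays of the same protein sequence at different concentrations or buffers and across linkers.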
# [2] = molecular target: GlcNAc(b1-3)Gal(b1-4)GlcNAc(b1-3)Gal(b1-4)GlcNAc(b1-3)Gal(b1-4)GlcNAc(b1-3)Gal(b1-4)GlcNAc(b1-2)Man(a1-3)[GlcNAc(b1-3)Gal(b1-4)GlcNAc(b1-3)Gal(b1-4)GlcNAc(b1-3)Gal(b1-4)GlcNAc(b1-3)Gal(b1-4)GlcNAc(b1-2)Man(a1-6)]Man(b1-4)GlcNAc(b1-4)GlcNAc
# Procedure, shortened: as §1
# [3] = molecular target: GlcNAc(b1-3)Gal(b1-4)GlcNAc(b1-3)Gal(b1-4)GlcNAc(b1-3)Gal(b1-4)GlcNAc(b1-3)Gal(b1-4)GlcNAc(b1-2)Man(a1-3)[GlcNAc(b1-3)Gal(b1-4)GlcNAc(b1-3)Gal(b1-4)GlcNAc(b1-3)Gal(b1-4)GlcNAc(b1-3)Gal(b1-4)GlcNAc(b1-2)Man(a1-6)]Man(b1-4)GlcNAc(b1-4)[Fuc(a1-6)]GlcNAc
# Procedure, shortened: as §1
# [4] = molecular target: GlcNAc(b1-3)Gal(b1-4)GlcNAc(b1-3)Gal(b1-4)GlcNAc(b1-3)Gal(b1-4)GlcNAc(b1-3)Gal(b1-4)GlcNAc(b1-2)[GlcNAc(b1-3)Gal(b1-4)GlcNAc(b1-3)Gal(b1-4)GlcNAc(b1-3)Gal(b1-4)GlcNAc(b1-3)Gal(b1-4)GlcNAc(b1-6)]Man(a1-6)[GlcNAc(b1-3)Gal(b1-4)GlcNAc(b1-3)Gal(b1-4)GlcNAc(b1-3)Gal(b1-4)GlcNAc(b1-3)Gal(b1-4)GlcNAc(b1-2)Man(a1-3)]Man(b1-4)GlcNAc(b1-4)[Fuc(a1-6)]GlcNAc
# Procedure, shortened: as §1
# [5] = molecular target: GlcNAc(b1-3)Gal(b1-4)GlcNAc(b1-3)Gal(b1-4)GlcNAc(b1-3)GalNAc
# Procedure, shortened: as §1
# [6] = molecular target: GlcNAc(b1-3)Gal(b1-4)GlcNAc(b1-3)GalNAc
# Procedure, shortened: as §1
# [7] = molecular target: GlcNAc(b1-3)Gal(b1-4)GlcNAc(b1-3)[GlcNAc(b1-3)Gal(b1-4)GlcNAc(b1-3)]GalNAc
# Procedure, shortened: as §1
# [8] = molecular target: GlcNAc(b1-3)Gal(b1-4)GlcNAc(b1-6)[Gal(b1-3)]GalNAc
# Procedure, shortened: as §1
# [9] = molecular target: GlcNAc(b1-3)Gal(b1-4)GlcNAc(b1-6)[GlcNAc(b1-3)Gal(b1-3)]GalNAc
# Procedure, shortened: as §1
# [10] = molecular target: GlcNAc(b1-3)Gal(b1-4)GlcNAc(b1-6)[GlcNAc(b1-3)]Gal(b1-4)GlcNAc
# Procedure, shortened: as §1
# [11] = molecular target: GlcNAc(b1-3)GalNAc
# Procedure, shortened: as §1
# [12] = molecular target: GlcNAc(b1-3)Man
# Procedure, shortened: as §1
# [13] = molecular target: GlcNAc(b1-3)[GlcNAc(b1-4)][GlcNAc(b1-6)]GlcNAc
# Procedure, shortened: as §1
# [14] = molecular target: GlcNAc(b1-3)[GlcNAc(b1-6)]Gal(b1-4)GlcNAc
# Procedure, shortened: as §1
# [15] = molecular target: GlcNAc(b1-3)[GlcNAc(b1-6)]GalNAc
# Procedure, shortened: as §1
# [16] = molecular target: GlcNAc(b1-3)[GlcNAc(b1-6)]GlcNAc(b1-4)GlcNAc
# Procedure, shortened: as §1
# [17] = molecular target: GlcNAc(b1-4)Gal(b1-4)GlcNAc
# Procedure, shortened: as §1
# [18] = molecular target: GlcNAc(b1-4)GlcNAc
# Procedure, shortened: as §1
# [19] = molecular target: GlcNAc(b1-4)GlcNAc(b1-4)GlcNAc
# Procedure, shortened: as §1
# [20] = molecular target: GlcNAc(b1-4)GlcNAc(b1-4)GlcNAc(b1-4)GlcNAc(b1-4)GlcNAc
# Procedure, shortened: as §1
# [21] = molecular target: GlcNAc(b1-4)GlcNAc(b1-4)GlcNAc(b1-4)GlcNAc(b1-4)GlcNAc(b1-4)GlcNAc
# Procedure, shortened: as §1
# [22] = molecular target: GlcNAc(b1-4)[GlcNAc(b1-6)]GalNAc
# Procedure, shortened: as §1
# [23] = molecular target: GlcNAc(b1-6)Gal(b1-4)GlcNAc
# Procedure, shortened: as §1
# [24] = molecular target: GlcNAc(b1-6)GalNAc
# Procedure, shortened: as §1
# [25] = molecular target: GlcNAc3Prop(b1-4)GlcNAc
# Procedure, shortened: as §1
# [26] = molecular target: GlcNAc6S(b1-3)Gal(b1-4)GlcNAc
# Procedure, shortened: as §1
# [27] = molecular target: Kdn(a2-3)Gal(b1-3)GalNAc
# Procedure, shortened: as §1
# [28] = molecular target: Kdn(a2-3)Gal(b1-3)GlcNAc
# Procedure, shortened: as §1
# [29] = molecular target: Kdn(a2-3)Gal(b1-4)Glc
# Procedure, shortened: as §1
# [30] = molecular target: Kdn(a2-3)Gal(b1-4)GlcNAc
# Procedure, shortened: as §1
# [31] = molecular target: Kdn(a2-3)Gal(b1-4)[Fuc(a1-3)]GlcNAc
# Procedure, shortened: as §1
# [32] = molecular target: Kdn(a2-6)Gal(b1-4)GlcNAc
# Procedure, shortened: as §1
# [33] = molecular target: Man(a1-2)Man(a1-2)Man(a1-3)Man
# Procedure, shortened: as §1
# [34] = molecular target: Man(a1-2)Man(a1-2)Man(a1-6)[Man(a1-3)]Man
# Procedure, shortened: as §1
# [35] = molecular target: Man(a1-2)Man(a1-3)Man
# Procedure, shortened: as §1
# [36] = molecular target: Man(a1-2)Man(a1-3)[Man(a1-2)Man(a1-6)]Man
# Procedure, shortened: as §1
# [37] = molecular target: Man(a1-2)Man(a1-3)[Man(a1-2)Man(a1-6)]Man(a1-6)[Man(a1-2)Man(a1-2)Man(a1-3)]Man
# Procedure, shortened: as §1
# [38] = molecular target: Man(a1-2)Man(a1-3)[Man(a1-2)Man(a1-6)]Man(a1-6)[Man(a1-2)Man(a1-2)Man(a1-3)]Man(b1-4)GlcNAc(b1-4)GlcNAc
# Procedure, shortened: as §1
# [39] = molecular target: Man(a1-2)Man(a1-3)[Man(a1-6)]Man(a1-6)[Man(a1-2)Man(a1-3)]Man(b1-4)GlcNAc(b1-4)GlcNAc
# Procedure, shortened: as §1
# [40] = molecular target: Man(a1-2)Man(a1-6)[Man(a1-3)]Man(a1-6)[Man(a1-2)Man(a1-2)Man(a1-3)]Man
# Procedure, shortened: as §1
# [41] = molecular target: Man(a1-2)Man(a1-6)[Man(a1-3)]Man(a1-6)[Man(a1-2)Man(a1-2)Man(a1-3)]Man(b1-4)GlcNAc(b1-4)GlcNAc
# Procedure, shortened: as §1
# [42] = molecular target: Man(a1-3)[Man(a1-6)]Man
# Procedure, shortened: as §1
# [43] = molecular target: Man(a1-3)[Man(a1-6)]Man(a1-6)[Man(a1-2)Man(a1-3)]Man(b1-4)GlcNAc(b1-4)GlcNAc
# Procedure, shortened: as §1
# [44] = molecular target: Man(a1-3)[Man(a1-6)]Man(a1-6)[Man(a1-3)]Man
# Procedure, shortened: as §1
# [45] = molecular target: Man(a1-3)[Man(a1-6)]Man(a1-6)[Man(a1-3)]Man(b1-4)GlcNAc(b1-4)GlcNAc
# Procedure, shortened: as §1
binder,measurement,setting,value
B1,glycan array binding signal (z-score),[1],0.115
same,glycan array binding signal (z-score),[2],0.074
same,glycan array binding signal (z-score),[3],-0.002
same,glycan array binding signal (z-score),[4],1.74
same,glycan array binding signal (z-score),[5],-0.344
same,glycan array binding signal (z-score),[6],-0.34
same,glycan array binding signal (z-score),[7],-0.328
same,glycan array binding signal (z-score),[8],-0.305
same,glycan array binding signal (z-score),[9],-0.383
same,glycan array binding signal (z-score),[10],-0.301
same,glycan array binding signal (z-score),[11],0.296
same,glycan array binding signal (z-score),[12],-0.275
same,glycan array binding signal (z-score),[13],-0.213
same,glycan array binding signal (z-score),[14],-0.307
same,glycan array binding signal (z-score),[15],-0.304
same,glycan array binding signal (z-score),[16],-0.295
same,glycan array binding signal (z-score),[17],0.443
same,glycan array binding signal (z-score),[18],-0.249
same,glycan array binding signal (z-score),[19],-0.268
same,glycan array binding signal (z-score),[20],-0.314
same,glycan array binding signal (z-score),[21],-0.223
same,glycan array binding signal (z-score),[22],-0.401
same,glycan array binding signal (z-score),[23],-0.35
same,glycan array binding signal (z-score),[24],-0.293
same,glycan array binding signal (z-score),[25],-0.979
same,glycan array binding signal (z-score),[26],-0.208
same,glycan array binding signal (z-score),[27],0.037
same,glycan array binding signal (z-score),[28],-0.188
same,glycan array binding signal (z-score),[29],-0.216
same,glycan array binding signal (z-score),[30],-0.14
same,glycan array binding signal (z-score),[31],0.172
same,glycan array binding signal (z-score),[32],-0.242
same,glycan array binding signal (z-score),[33],-0.088
same,glycan array binding signal (z-score),[34],-0.246
same,glycan array binding signal (z-score),[35],-0.22
same,glycan array binding signal (z-score),[36],-0.231
same,glycan array binding signal (z-score),[37],-0.178
same,glycan array binding signal (z-score),[38],-0.15
same,glycan array binding signal (z-score),[39],-0.201
same,glycan array binding signal (z-score),[40],-0.253
same,glycan array binding signal (z-score),[41],-0.401
same,glycan array binding signal (z-score),[42],-0.163
same,glycan array binding signal (z-score),[43],0.257
same,glycan array binding signal (z-score),[44],-0.135
same,glycan array binding signal (z-score),[45],-0.156
